According to publication PMC4126661:
These are yes or no findings as the source states them, for the method shown. Binding seen in cells or lysates may run through a third protein. Some results given as binding are weak or reduced against the parent protein; the word gives no strength. Values belong to the molecule of their own block, whether it stands above or below them.

Chains of the proteins cited; added tags and fusions are not shown. Lines headed by an entry give the natural chain unless they say otherwise; changes in a name come on top. A line that says so, or that is headed by a name, gives the form on record, which may keep a tag or linker. Residues count along the entry.
UniProt Q9UDY8: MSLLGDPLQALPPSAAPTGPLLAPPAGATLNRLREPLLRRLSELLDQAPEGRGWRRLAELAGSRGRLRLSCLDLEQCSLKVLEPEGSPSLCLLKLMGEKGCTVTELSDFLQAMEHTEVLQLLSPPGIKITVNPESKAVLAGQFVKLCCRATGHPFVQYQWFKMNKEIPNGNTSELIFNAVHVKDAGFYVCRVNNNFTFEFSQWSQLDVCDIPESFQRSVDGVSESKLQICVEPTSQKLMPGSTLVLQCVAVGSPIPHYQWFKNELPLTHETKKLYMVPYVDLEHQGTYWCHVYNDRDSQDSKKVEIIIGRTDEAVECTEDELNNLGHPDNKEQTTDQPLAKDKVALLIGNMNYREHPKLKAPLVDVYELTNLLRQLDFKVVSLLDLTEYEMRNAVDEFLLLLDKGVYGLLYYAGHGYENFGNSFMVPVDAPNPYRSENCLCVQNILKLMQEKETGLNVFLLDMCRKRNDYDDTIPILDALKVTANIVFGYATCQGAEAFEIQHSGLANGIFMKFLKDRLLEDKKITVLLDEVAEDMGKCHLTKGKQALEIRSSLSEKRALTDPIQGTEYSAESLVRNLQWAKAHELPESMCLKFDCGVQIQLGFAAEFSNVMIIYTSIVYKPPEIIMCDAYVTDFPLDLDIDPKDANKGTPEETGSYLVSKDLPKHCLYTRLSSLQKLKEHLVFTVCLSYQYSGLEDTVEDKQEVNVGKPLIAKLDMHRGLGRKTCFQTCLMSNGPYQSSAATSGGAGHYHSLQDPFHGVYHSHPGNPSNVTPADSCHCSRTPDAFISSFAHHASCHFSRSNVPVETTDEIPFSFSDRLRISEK
Avi-tagged MALT1 p76 fragment (bio-IP of Figure 4C): residues 150-824 of Q9UDY8

How the values were obtained:
[1] = target: Avi-tagged Ub-p76 (native MALT1 p76 released from an HA-ubiquitin fusion, C-terminal Avi-tag) (human) (UniProt Q9UDY8); test: pull-down; streptavidin pull-down (bio-IP) of Avi-tagged Ub-p76 expressed together with Flag-p76 or Flag-MALT1; blots with a-MALT1-C, a-Flag and a-TRAF6; NDLB lysis buffer, streptavidin Dynabeads 1 h at 4°C
[2] = target: Avi-tagged MALT1 (full length), expressed in 293T cells (human) (UniProt Q9UDY8); test: pull-down; streptavidin pull-down (bio-IP) of biotinylated Avi-tagged MALT1 constructs transiently expressed in 293T cells; lysis in NDLB (20 mM Tris-Cl pH 7.6, 110 mM NaCl, 2 mM EDTA, 0.3% NP-40, 10% glycerol); streptavidin Dynabeads 1 h at 4°C; blots for endogenous TRAF6 and BCL10
[3] = target: Avi-tagged MALT1 p76 fragment (bio-IP of Figure 4C) (human) (UniProt Q9UDY8); test: as above
[4] = target: Avi-tagged MALT1-C464A, stably expressed in Jurkat T cells (human) (UniProt Q9UDY8); test: pull-down; streptavidin pull-down (bio-IP) from Jurkat T cells with stable expression of Avi-tagged MALT1 or its mutants; NDLB lysis buffer, streptavidin Dynabeads 1 h at 4°C; immunoblot
[5] = target: Avi-tagged MALT1-R149A, stably expressed in Jurkat T cells (human) (UniProt Q9UDY8); test: as above
[6] = target: Avi-tagged MALT1-RACA (R149A/C464A), stably expressed in Jurkat T cells (human) (UniProt Q9UDY8); test: as above
[7] = target: Avi-tagged wild-type MALT1, stably expressed in Jurkat T cells (human) (UniProt Q9UDY8); test: as above

Molecule: Flag-tagged full-length MALT1, expressed in 293T cells (from UniProt Q9UDY8-1 1-824)
- binding [1]: no binding

B2: BCL10 of Jurkat T cells (protein, UniProt O95999 1-233)
chain: MEPTAPSLTEEDLTEVKKDALENLRVYLCEKIIAERHFDHLRAKKILSREDTEEISCRTSSRKRAGKLLDYLQENPKGLDTLVESIRREKTQNFLIQKITDEVLKLRNIKLEHLKGLKCSSCEPFPDGATNNLSRSNSDESNFSEKLRASTVMYHPEGESSTTPFFSTNSSLNLPVLEVGRTENTIFSSTTLPRPGDPGAPPLPPDLQLEEEGTCANSSEMFLPLRSRTVSRQ
- binding [4]: binds
- binding [5]: binds
- binding [6]: binds
- binding [7]: binds

Second part, the molecule after the results:

- binding [1]: binds
Molecule: Avi-tagged Ub-p76 (native MALT1 p76 released from an HA-ubiquitin fusion, C-terminal Avi-tag) (from UniProt Q9UDY8-1 150-824) (domain or fragment)

- binding [2]: binds
- binding [3]: no binding
B1: endogenous BCL10 of 293T cells (protein, UniProt O95999 1-233)
chain: MEPTAPSLTEEDLTEVKKDALENLRVYLCEKIIAERHFDHLRAKKILSREDTEEISCRTSSRKRAGKLLDYLQENPKGLDTLVESIRREKTQNFLIQKITDEVLKLRNIKLEHLKGLKCSSCEPFPDGATNNLSRSNSDESNFSEKLRASTVMYHPEGESSTTPFFSTNSSLNLPVLEVGRTENTIFSSTTLPRPGDPGAPPLPPDLQLEEEGTCANSSEMFLPLRSRTVSRQ
